Results from the supplement of paper PMC8728848.
This is one part of the list.

Experiments:
Experiment in all cases: glycan array binding signal (z-score within array); higher = stronger binding
Conditions in all cases: glycan notation: IUPAC condensed, linker removed
Fuc(a1-2)Gal = target: Fuc(a1-2)Gal
Outline: (§1)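 The Consortium for Functional Glycomics database supplied 3228 glycan arrays, of which those lacking an available protein sequence were dropped. The binding signal, a within-array Z-score, was averaged across arrays of the same protein sequence and across linkers. Negative scores can be read as non-binding.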

Fuc(a1-2)Gal(b1-3)GalNAc = target: Fuc(a1-2)Gal(b1-3)GalNAc
Outline: as §1

[1] = target: Fuc(a1-2)Gal(b1-3)GalNAc(a1-3)[Fuc(a1-2)]Gal(b1-4)Glc
Outline: as §1

[2] = target: Fuc(a1-2)Gal(b1-3)GalNAc(a1-3)[Fuc(a1-2)]Gal(b1-4)GlcNAc
Outline: as §1

[3] = target: Fuc(a1-2)Gal(b1-3)GalNAc(b1-3)Gal
Outline: as §1

[4] = target: Fuc(a1-2)Gal(b1-3)GalNAc(b1-3)Gal(a1-4)Gal(b1-4)Glc
Outline: as §1

[5] = target: Fuc(a1-2)Gal(b1-3)GalNAc(b1-4)[Neu5Ac(a2-3)]Gal(b1-4)Glc
Outline: as §1

Fuc(a1-2)Gal(b1-3)GlcNAc = target: Fuc(a1-2)Gal(b1-3)GlcNAc
Outline: as §1

[6] = target: Fuc(a1-2)Gal(b1-3)GlcNAc(b1-2)Man(a1-3)[Fuc(a1-2)Gal(b1-3)GlcNAc(b1-2)Man(a1-6)]Man(b1-4)GlcNAc(b1-4)GlcNAc
Outline: as §1

[7] = target: Fuc(a1-2)Gal(b1-3)GlcNAc(b1-2)Man(a1-3)[Fuc(a1-2)Gal(b1-3)GlcNAc(b1-2)Man(a1-6)]Man(b1-4)GlcNAc(b1-4)[Fuc(a1-6)]GlcNAc
Outline: as §1

[8] = target: Fuc(a1-2)Gal(b1-3)GlcNAc(b1-3)Gal(b1-4)Glc
Outline: as §1

[9] = target: Fuc(a1-2)Gal(b1-3)GlcNAc(b1-3)GalNAc
Outline: as §1

[10] = target: Fuc(a1-2)Gal(b1-3)GlcNAc(b1-3)[Fuc(a1-2)Gal(b1-3)GlcNAc(b1-6)]GalNAc
Outline: as §1

[11] = target: Fuc(a1-2)Gal(b1-3)GlcNAc(b1-3)[Gal(b1-4)GlcNAc(b1-6)]Gal(b1-4)Glc
Outline: as §1

[12] = target: Fuc(a1-2)Gal(b1-3)GlcNAc(b1-3)[Neu5Ac(a2-6)Gal(b1-4)GlcNAc(b1-6)]Gal(b1-4)Glc
Outline: as §1

[13] = target: Fuc(a1-2)Gal(b1-3)GlcNAc6S
Outline: as §1

[14] = target: Fuc(a1-2)Gal(b1-3)[Fuc(a1-4)]GlcNAc
Outline: as §1

[15] = target: Fuc(a1-2)Gal(b1-3)[Fuc(a1-4)]GlcNAc(b1-2)Man(a1-3)[Fuc(a1-2)Gal(b1-3)[Fuc(a1-4)]GlcNAc(b1-2)Man(a1-3)]Man(b1-4)GlcNAc(b1-4)GlcNAc
Outline: as §1

[16] = target: Fuc(a1-2)Gal(b1-3)[Fuc(a1-4)]GlcNAc(b1-2)Man(a1-3)[Fuc(a1-2)Gal(b1-3)[Fuc(a1-4)]GlcNAc(b1-2)Man(a1-6)]Man(b1-4)GlcNAc(b1-4)[Fuc(a1-6)]GlcNAc(b1-4)[Fuc(a1-6)]GlcNAc
Outline: as §1

[17] = target: Fuc(a1-2)Gal(b1-3)[Fuc(a1-4)]GlcNAc(b1-3)[Fuc(a1-3)[Gal(b1-4)]GlcNAc(b1-6)]Gal(b1-4)Glc
Outline: as §1

[18] = target: Fuc(a1-2)Gal(b1-3)[Fuc(a1-4)]GlcNAc(b1-3)[Gal(b1-4)GlcNAc(b1-6)]Gal(b1-4)Glc
Outline: as §1

Fuc(a1-2)Gal(b1-4)Glc = target: Fuc(a1-2)Gal(b1-4)Glc
Outline: as §1

Fuc(a1-2)Gal(b1-4)Glc6S = target: Fuc(a1-2)Gal(b1-4)Glc6S
Outline: as §1

Fuc(a1-2)Gal(b1-4)GlcNAc = target: Fuc(a1-2)Gal(b1-4)GlcNAc
Outline: as §1

[19] = target: Fuc(a1-2)Gal(b1-4)GlcNAc(b1-2)Man
Outline: as §1

[20] = target: Fuc(a1-2)Gal(b1-4)GlcNAc(b1-2)Man(a1-3)[Fuc(a1-2)Gal(b1-4)GlcNAc(b1-2)Man(a1-6)]Man(b1-4)GlcNAc(b1-4)GlcNAc
Outline: as §1

[21] = target: Fuc(a1-2)Gal(b1-4)GlcNAc(b1-2)Man(a1-3)[Fuc(a1-2)Gal(b1-4)GlcNAc(b1-2)Man(a1-6)]Man(b1-4)GlcNAc(b1-4)[Fuc(a1-6)]GlcNAc
Outline: as §1

[22] = target: Fuc(a1-2)Gal(b1-4)GlcNAc(b1-2)[Fuc(a1-2)Gal(b1-4)GlcNAc(b1-4)]Man(a1-3)[Fuc(a1-2)Gal(b1-4)GlcNAc(b1-2)Man(a1-6)]Man(b1-4)GlcNAc(b1-4)GlcNAc
Outline: as §1

[23] = target: Fuc(a1-2)Gal(b1-4)GlcNAc(b1-3)Gal(b1-4)GlcNAc
Outline: as §1

[24] = target: Fuc(a1-2)Gal(b1-4)GlcNAc(b1-3)Gal(b1-4)GlcNAc(b1-2)Man(a1-3)[Fuc(a1-2)Gal(b1-4)GlcNAc(b1-3)Gal(b1-4)GlcNAc(b1-2)Man(a1-6)]Man(b1-4)GlcNAc(b1-4)GlcNAc
Outline: as §1

B1: Epa22 (Candida glabrata) (protein)
chain: MGSSHHHHHHSSGLVPRGSHMKRALSSQNPFGYPIGCSPQSTNVIPGLTMELYSYPIVSGTPPNCYDASYVDPEYPRTGYLKRKMIGKSTGVTGSLNYKFSVEKACMVKYGNLPAGYNYNEPLTVSNFTMLLYGYFKPQTSGIHTFFVNADDLLYINFGAGNAFDCCKREDSKFKLGEYVAYDIWHVDSSKNKVSLNLEKDVYYPIRMFFNNIGKDSSLDLSFSVNGAVEHITDFSGYLYSVPDQPDACPAPIGYDTTCK
B1 was tested, and the “glycan array binding signal (z-score)” value (Fuc(a1-2)Gal) was -0.385, the “glycan array binding signal (z-score)” value (Fuc(a1-2)Gal(b1-3)GalNAc) was -0.38 and the “glycan array binding signal (z-score)” value [1] was -0.361. For the same binder, the “glycan array binding signal (z-score)” value [2] was -0.373, the “glycan array binding signal (z-score)” value [3] was -0.282 and the “glycan array binding signal (z-score)” value [4] was -0.328. The “glycan array binding signal (z-score)” value [5] was -0.408, the “glycan array binding signal (z-score)” value (Fuc(a1-2)Gal(b1-3)GlcNAc) was -0.39 and the “glycan array binding signal (z-score)” value [6] was 0.003. The “glycan array binding signal (z-score)” value [7] was -0.398, the “glycan array binding signal (z-score)” value [8] was -0.387 and the “glycan array binding signal (z-score)” value [9] was -0.308. The “glycan array binding signal (z-score)” value [10] was 1.01, the “glycan array binding signal (z-score)” value [11] was -0.338 and the “glycan array binding signal (z-score)” value [12] was -0.338. The “glycan array binding signal (z-score)” value [13] was -0.242, the “glycan array binding signal (z-score)” value [14] was -0.376 and the “glycan array binding signal (z-score)” value [15] was -0.235. The “glycan array binding signal (z-score)” value [16] was -0.404, the “glycan array binding signal (z-score)” value [17] was -0.366 and the “glycan array binding signal (z-score)” value [18] was -0.334. The “glycan array binding signal (z-score)” value (Fuc(a1-2)Gal(b1-4)Glc) was -0.378, the “glycan array binding signal (z-score)” value (Fuc(a1-2)Gal(b1-4)Glc6S) was -0.03 and the “glycan array binding signal (z-score)” value (Fuc(a1-2)Gal(b1-4)GlcNAc) was -0.287. The “glycan array binding signal (z-score)” value [19] was -0.333, the “glycan array binding signal (z-score)” value [20] was -0.348 and the “glycan array binding signal (z-score)” value [21] was -0.333. The “glycan array binding signal (z-score)” value [22] was -0.376, the “glycan array binding signal (z-score)” value [23] was -0.384 and the “glycan array binding signal (z-score)” value [24] was -0.382.
